The values below come from article PMC4207660, “Identification and Characterization of Hundreds of Potent and Selective Inhibitors of Trypanosoma brucei Growth from a Kinase-Targeted Library Screening Campaign” (PLoS Neglected Tropical Diseases, 2014).

≈ marks a conversion by molar mass, not a printed value.

Data set [1] concerns T. brucei brucei parasites (Lister 427 strain). Put plainly: Dose response growth inhibition assay (resazurin, 72 h). The format is cell-based. The conditions noted are these: Trypanosoma brucei; T. b. brucei growth inhibition; read-out: Tbb pEC50 (converted). Here is the method:
Greiner sterile black clear bottom 384-well assay plates were pre-dispensing with 200 nL of compound in each well, from master plates at 1 mM (100% DMSO) containing selection from the GSK compound collection. Controls of 0% response (control 1, 200 nL of 100%DMSO) and 100% response (control 2, 200 nL of 1 mM pentamidine) were included in each assay plate in columns 6 and 18, respectively. Plates containing 200 nL of 100% DMSO were included randomly in the assay, to assess quality through all process. […] After this period, 10 µL of 200 µM resazurin solution in prewarmed HMI-9 were added to each well, and plates were allowed to incubate 2 hours more prior fluorescence reading in a Wallac EnVision Multilabel Plate Reader (Perkin-Elmer). Raw fluorescent data from the Envision plate reader were uploaded into GSK HTS database (ActivityBase). Activity of each well was normalized as a percentage of inhibition per-plate basis using the following equation: [drawing 1]
For dose-response experiments, serial compound dilutions of selected hits from the primary campaign were plotted against compound concentration. Dose response master plates were prepared by 3-fold dilutions (starting with 10 mM DMSO stock solutions), providing 11 concentrations. From these master plates, 200 nL per well was stamped in final assay plates, including the same controls describe in the primary single shot assay. […]
(In general: Alamar Blue is a resazurin reagent that responds to reducing activity.)

The nature of data set [2]: CLND kinetic solubility assay. The conditions noted are these: phosphate buffered saline, pH 7.4, aqueous buffer, kinetic from dmso stock; Measured; read-out: Aq Sol. The format is physicochemical. The protocol: 5 µL of 10 mM DMSO stock solution was diluted to 100 µL with pH 7.4 phosphate buffered saline, equilibrated for 1 hour at room temperature, filtered through Millipore MultiscreenHTS-PCF filter plates (MSSL BPC). The filtrate was quantified by suitably calibrated flow injection Chemi-Luminescent Nitrogen Detection.

A further data set in a line: ChromlogD assay. The protocol:
The Chromatographic Hydrophobicity Index (CHI)[22] values were measured using reversed phase HPLC column (Luna C18 (2), Phenomenex, UK) with a fast acetonitrile gradient at starting mobile phase of pH = 7.4. CHI values are derived directly from the gradient retention times by using a calibration line obtained for standard compounds. The CHI value approximates to the volume % organic concentration when the compound elutes. […] The average error of the assay is ±3 CHI unit or ±0.25 ChromlogD.

On to `Cn1cc(-c2ccc3nc(-c4cc(-c5cccc(CCN6CCOCC6)c5)cnc4N)[nH]c3c2)cn1` [NEU-0001121], for which the EC50 in data set [1] is 63.1 nM.
Take `NS(=O)(=O)c1ccc(Nc2ncc3cccc(OC4CCNCC4)c3n2)cc1` [NEU-0001122]: in data set [1], the EC50 is 100 nM. Further, the solubility kinetic at 1 h in data set [2] worked out at 81 µM (≈ 32.4 µg/mL). This molecule also displayed a PFI in the data set “ChromlogD assay” of 3.78.
For the molecule `COc1cc(/C=N/Nc2ncnc3c2cnn3C(C)C)ccc1O` [NEU-0001125], the solubility kinetic at 1 h in data set [2] is 235 µM (≈ 76.7 µg/mL). Also, the PFI in “ChromlogD assay” amounted to 6.34.
